# The list shows a part of the results.
# B1: AT5G01260(PC)(40) (Arabidopsis thaliana), Q9LFB0 (protein)
# chain: MIGIGRTLTSSSPSKIILEDLPPGIYRYGTEIFTSVPRKTFHHIKFLRLDSAQSSRILKPVPLRSSSIKDSQVNVEDEEIEASNKTVRVRFQLRKECVFGEHFFIVGDDPVFGGLWDPETALPLNWSDGNVWTVDLDLPVGRLVEFKLLLKAQTGEILWQPGPNRALETWETNKTIRICEDWDNADLQMMIEEDFVPYTNISSIGSEDEDEVLGSVQQNSSVVAVENAGYVSDESAQNSSFSIQSEKTMEPSNGALTAREVIKEAMFTEEESPVLVPGLIPLSDLDNEQVEVINEGKAETFPEVDKKQEPKAERNKKAKVKAISLFEKSEQEAVKSVEQRQYNAVEEEQQRLETEPLGTPDVLFENDIQWGRRTLYKLLSNFRLF
# How the values were obtained:
# Assay in all cases: glycan array binding signal (z-score within array); higher = stronger binding
# Settings in all cases: glycan notation: IUPAC condensed, linker removed
# [1] = target: Neu5Ac(a2-3)Gal(b1-4)GlcNAc(b1-2)[Neu5Ac(a2-3)Gal(b1-4)GlcNAc(b1-4)]Man(a1-3)[GlcNAc(b1-4)][Neu5Ac(a2-3)Gal(b1-4)GlcNAc(b1-2)[Neu5Ac(a2-3)Gal(b1-4)GlcNAc(b1-6)]Man(a1-6)]Man(b1-4)GlcNAc(b1-4)GlcNAc
# Outline: (§1)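 The Consortium for Functional Glycomics database supplied 3228 glycan arrays, of which those lacking an available protein sequence were dropped. The binding signal, a within-array Z-score, was averaged across arrays of the same protein sequence and across linkers. Negative scores can be read as non-binding.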
# [2] = target: Neu5Ac(a2-3)Gal(b1-4)GlcNAc(b1-2)[Neu5Ac(a2-3)Gal(b1-4)GlcNAc(b1-4)]Man(a1-3)[GlcNAc(b1-4)][Neu5Ac(a2-3)Gal(b1-4)GlcNAc(b1-4)Man(a1-6)]Man(b1-4)GlcNAc(b1-4)GlcNAc
# Outline: as §1
# [3] = target: Neu5Ac(a2-3)Gal(b1-4)GlcNAc(b1-2)[Neu5Ac(a2-3)Gal(b1-4)GlcNAc(b1-6)]Man(a1-6)[Neu5Ac(a2-3)Gal(b1-4)GlcNAc(b1-2)Man(a1-3)]Man(b1-4)GlcNAc(b1-4)GlcNAc
# Outline: as §1
# [4] = target: Neu5Ac(a2-3)Gal(b1-4)GlcNAc(b1-2)[Neu5Ac(a2-3)Gal(b1-4)GlcNAc(b1-6)]Man(a1-6)[Neu5Ac(a2-3)Gal(b1-4)GlcNAc(b1-2)Man(a1-3)][GlcNAc(b1-4)]Man(b1-4)GlcNAc(b1-4)GlcNAc
# Outline: as §1
# [5] = target: Neu5Ac(a2-3)Gal(b1-4)GlcNAc(b1-3)Gal
# Outline: as §1
# [6] = target: Neu5Ac(a2-3)Gal(b1-4)GlcNAc(b1-3)Gal(b1-3)GlcNAc
# Outline: as §1
# [7] = target: Neu5Ac(a2-3)Gal(b1-4)GlcNAc(b1-3)Gal(b1-4)GlcNAc
# Outline: as §1
# [8] = target: Neu5Ac(a2-3)Gal(b1-4)GlcNAc(b1-3)Gal(b1-4)GlcNAc(b1-2)Man(a1-3)[Neu5Ac(a2-3)Gal(b1-4)GlcNAc(b1-3)Gal(b1-4)GlcNAc(b1-2)Man(a1-6)]Man(b1-4)GlcNAc(b1-4)GlcNAc
# Outline: as §1
# [9] = target: Neu5Ac(a2-3)Gal(b1-4)GlcNAc(b1-3)Gal(b1-4)GlcNAc(b1-3)Gal(b1-4)GlcNAc
# Outline: as §1
# [10] = target: Neu5Ac(a2-3)Gal(b1-4)GlcNAc(b1-3)Gal(b1-4)GlcNAc(b1-3)Gal(b1-4)GlcNAc(b1-2)Man(a1-3)[Neu5Ac(a2-3)Gal(b1-4)GlcNAc(b1-3)Gal(b1-4)GlcNAc(b1-3)Gal(b1-4)GlcNAc(b1-2)Man(a1-6)]GalNAc
# Outline: as §1
# [11] = target: Neu5Ac(a2-3)Gal(b1-4)GlcNAc(b1-3)Gal(b1-4)GlcNAc(b1-3)GalNAc
# Outline: as §1
# [12] = target: Neu5Ac(a2-3)Gal(b1-4)GlcNAc(b1-3)Gal(b1-4)GlcNAc(b1-3)[Neu5Ac(a2-3)Gal(b1-4)GlcNAc(b1-3)Gal(b1-4)GlcNAc(b1-6)]GalNAc
# Outline: as §1
# [13] = target: Neu5Ac(a2-3)Gal(b1-4)GlcNAc(b1-3)Gal(b1-4)GlcNAc(b1-6)[Gal(b1-3)]GalNAc
# Outline: as §1
# [14] = target: Neu5Ac(a2-3)Gal(b1-4)GlcNAc(b1-3)Gal(b1-4)[Fuc(a1-3)]GlcNAc
# Outline: as §1
# [15] = target: Neu5Ac(a2-3)Gal(b1-4)GlcNAc(b1-3)GalNAc
# Outline: as §1
# [16] = target: Neu5Ac(a2-3)Gal(b1-4)GlcNAc(b1-3)[Neu5Ac(a2-3)Gal(b1-4)GlcNAc(b1-6)]GalNAc
# Outline: as §1
# [17] = target: Neu5Ac(a2-3)Gal(b1-4)GlcNAc(b1-6)GalNAc
# Outline: as §1
# [18] = target: Neu5Ac(a2-3)Gal(b1-4)GlcNAc(b1-6)[Gal(b1-3)]GalNAc
# Outline: as §1
# [19] = target: Neu5Ac(a2-3)Gal(b1-4)GlcNAc(b1-6)[Neu5Ac(a2-3)Gal(b1-3)]GalNAc
# Outline: as §1
# [20] = target: Neu5Ac(a2-3)Gal(b1-4)GlcNAc6S
# Outline: as §1
# [21] = target: Neu5Ac(a2-3)Gal(b1-4)[Fuc(a1-3)]GlcNAc
# Outline: as §1
# [22] = target: Neu5Ac(a2-3)Gal(b1-4)[Fuc(a1-3)]GlcNAc(b1-2)Man
# Outline: as §1
# [23] = target: Neu5Ac(a2-3)Gal(b1-4)[Fuc(a1-3)]GlcNAc(b1-3)Gal
# Outline: as §1
# [24] = target: Neu5Ac(a2-3)Gal(b1-4)[Fuc(a1-3)]GlcNAc(b1-3)Gal(b1-4)GlcNAc
# Outline: as §1
# [25] = target: Neu5Ac(a2-3)Gal(b1-4)[Fuc(a1-3)]GlcNAc(b1-3)Gal(b1-4)[Fuc(a1-3)]GlcNAc(b1-3)Gal(b1-4)[Fuc(a1-3)]GlcNAc
# Outline: as §1
# [26] = target: Neu5Ac(a2-3)Gal(b1-4)[Fuc(a1-3)]GlcNAc(b1-3)GalNAc
# Outline: as §1
# [27] = target: Neu5Ac(a2-3)Gal(b1-4)[Fuc(a1-3)]GlcNAc(b1-6)[Gal(b1-3)]GalNAc
# Outline: as §1
# [28] = target: Neu5Ac(a2-3)Gal(b1-4)[Fuc(a1-3)]GlcNAc(b1-6)[Neu5Ac(a2-3)Gal(b1-3)]GalNAc
# Outline: as §1
# [29] = target: Neu5Ac(a2-3)Gal(b1-4)[Fuc(a1-3)]GlcNAc6S
# Outline: as §1
# [30] = target: Neu5Ac(a2-3)Gal6S(b1-4)GlcNAc
# Outline: as §1
# [31] = target: Neu5Ac(a2-3)Gal6S(b1-4)[Fuc(a1-3)]GlcNAc
# Outline: as §1
# Neu5Ac(a2-3)GalNAc = target: Neu5Ac(a2-3)GalNAc
# Outline: as §1
# [32] = target: Neu5Ac(a2-3)GalNAc(b1-4)GlcNAc
# Outline: as §1
# [33] = target: Neu5Ac(a2-3)[GalNAc(b1-4)]Gal(b1-4)Glc
# Outline: as §1
# [34] = target: Neu5Ac(a2-3)[GalNAc(b1-4)]Gal(b1-4)GlcNAc
# Outline: as §1
# [35] = target: Neu5Ac(a2-3)[GalNAc(b1-4)]Gal(b1-4)GlcNAc(b1-3)GalNAc
# Outline: as §1
# [36] = target: Neu5Ac(a2-3)[Neu5Ac(a2-6)]GalNAc
# Outline: as §1
# Neu5Ac(a2-6)Gal = target: Neu5Ac(a2-6)Gal
# Outline: as §1
# [37] = target: Neu5Ac(a2-6)Gal(b1-3)GlcNAc(b1-3)[Gal(b1-4)GlcNAc(b1-6)]Gal(b1-4)Glc
# Outline: as §1
# Neu5Ac(a2-6)Gal(b1-4)Glc = target: Neu5Ac(a2-6)Gal(b1-4)Glc
# Outline: as §1
# [38] = target: Neu5Ac(a2-6)Gal(b1-4)GlcNAc
# Outline: as §1
# [39] = target: Neu5Ac(a2-6)Gal(b1-4)GlcNAc(b1-2)Man
# Outline: as §1
# [40] = target: Neu5Ac(a2-6)Gal(b1-4)GlcNAc(b1-2)Man(a1-3)Man(b1-4)GlcNAc(b1-4)GlcNAc
# Outline: as §1
# [41] = target: Neu5Ac(a2-6)Gal(b1-4)GlcNAc(b1-2)Man(a1-3)[Gal(b1-4)GlcNAc(b1-2)Man(a1-6)]Man(b1-4)GlcNAc(b1-4)GlcNAc
# Outline: as §1
# [42] = target: Neu5Ac(a2-6)Gal(b1-4)GlcNAc(b1-2)Man(a1-3)[GlcNAc(b1-2)Man(a1-6)]Man(b1-4)GlcNAc(b1-4)GlcNAc
# Outline: as §1
binder,measurement,setting,value
B1,glycan array binding signal (z-score),[1],0.225
same,glycan array binding signal (z-score),[2],0.282
same,glycan array binding signal (z-score),[3],-0.35
same,glycan array binding signal (z-score),[4],-0.434
same,glycan array binding signal (z-score),[5],-0.844
same,glycan array binding signal (z-score),[6],0.186
same,glycan array binding signal (z-score),[7],-0.47
same,glycan array binding signal (z-score),[8],-0.244
same,glycan array binding signal (z-score),[9],-0.063
same,glycan array binding signal (z-score),[10],0.092
same,glycan array binding signal (z-score),[11],-0.564
same,glycan array binding signal (z-score),[12],0.326
same,glycan array binding signal (z-score),[13],-0.3
same,glycan array binding signal (z-score),[14],0.192
same,glycan array binding signal (z-score),[15],-0.282
same,glycan array binding signal (z-score),[16],0.651
same,glycan array binding signal (z-score),[17],1.01
same,glycan array binding signal (z-score),[18],-0.164
same,glycan array binding signal (z-score),[19],0.292
same,glycan array binding signal (z-score),[20],-0.356
same,glycan array binding signal (z-score),[21],0.029
same,glycan array binding signal (z-score),[22],-0.543
same,glycan array binding signal (z-score),[23],0.393
same,glycan array binding signal (z-score),[24],0.142
same,glycan array binding signal (z-score),[25],-0.136
same,glycan array binding signal (z-score),[26],0.824
same,glycan array binding signal (z-score),[27],0.282
same,glycan array binding signal (z-score),[28],-0.662
same,glycan array binding signal (z-score),[29],-0.047
same,glycan array binding signal (z-score),[30],-0.571
same,glycan array binding signal (z-score),[31],-0.421
same,glycan array binding signal (z-score),Neu5Ac(a2-3)GalNAc,-0.206
same,glycan array binding signal (z-score),[32],0.241
same,glycan array binding signal (z-score),[33],-0.687
same,glycan array binding signal (z-score),[34],-0.464
same,glycan array binding signal (z-score),[35],0.199
same,glycan array binding signal (z-score),[36],-0.23
same,glycan array binding signal (z-score),Neu5Ac(a2-6)Gal,-0.313
same,glycan array binding signal (z-score),[37],-0.171
same,glycan array binding signal (z-score),Neu5Ac(a2-6)Gal(b1-4)Glc,-0.088
same,glycan array binding signal (z-score),[38],-0.043
same,glycan array binding signal (z-score),[39],0.013
same,glycan array binding signal (z-score),[40],0.028
same,glycan array binding signal (z-score),[41],0.086
same,glycan array binding signal (z-score),[42],-0.106
